# Measured values as given in PMC4336329 (PLoS ONE, 2015).
# In all, about 310,000 compounds went through this assay and about 14,000 (4.5%) showed an effect of 50% or more. The effect is printed as a negative number. This is one part of the list.
# Target: human ether-à-go-go-related gene (hERG) potassium channel (human, UniProt Q12809)
# Assay: primary screen, population patch clamp on CHO cells stably expressing hERG
# 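Note: peak tail current of the secondary pulse compared with the same well before compound.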
# Sequence of human ether-à-go-go-related gene (hERG) potassium channel (Q12809 whole entry, looked up): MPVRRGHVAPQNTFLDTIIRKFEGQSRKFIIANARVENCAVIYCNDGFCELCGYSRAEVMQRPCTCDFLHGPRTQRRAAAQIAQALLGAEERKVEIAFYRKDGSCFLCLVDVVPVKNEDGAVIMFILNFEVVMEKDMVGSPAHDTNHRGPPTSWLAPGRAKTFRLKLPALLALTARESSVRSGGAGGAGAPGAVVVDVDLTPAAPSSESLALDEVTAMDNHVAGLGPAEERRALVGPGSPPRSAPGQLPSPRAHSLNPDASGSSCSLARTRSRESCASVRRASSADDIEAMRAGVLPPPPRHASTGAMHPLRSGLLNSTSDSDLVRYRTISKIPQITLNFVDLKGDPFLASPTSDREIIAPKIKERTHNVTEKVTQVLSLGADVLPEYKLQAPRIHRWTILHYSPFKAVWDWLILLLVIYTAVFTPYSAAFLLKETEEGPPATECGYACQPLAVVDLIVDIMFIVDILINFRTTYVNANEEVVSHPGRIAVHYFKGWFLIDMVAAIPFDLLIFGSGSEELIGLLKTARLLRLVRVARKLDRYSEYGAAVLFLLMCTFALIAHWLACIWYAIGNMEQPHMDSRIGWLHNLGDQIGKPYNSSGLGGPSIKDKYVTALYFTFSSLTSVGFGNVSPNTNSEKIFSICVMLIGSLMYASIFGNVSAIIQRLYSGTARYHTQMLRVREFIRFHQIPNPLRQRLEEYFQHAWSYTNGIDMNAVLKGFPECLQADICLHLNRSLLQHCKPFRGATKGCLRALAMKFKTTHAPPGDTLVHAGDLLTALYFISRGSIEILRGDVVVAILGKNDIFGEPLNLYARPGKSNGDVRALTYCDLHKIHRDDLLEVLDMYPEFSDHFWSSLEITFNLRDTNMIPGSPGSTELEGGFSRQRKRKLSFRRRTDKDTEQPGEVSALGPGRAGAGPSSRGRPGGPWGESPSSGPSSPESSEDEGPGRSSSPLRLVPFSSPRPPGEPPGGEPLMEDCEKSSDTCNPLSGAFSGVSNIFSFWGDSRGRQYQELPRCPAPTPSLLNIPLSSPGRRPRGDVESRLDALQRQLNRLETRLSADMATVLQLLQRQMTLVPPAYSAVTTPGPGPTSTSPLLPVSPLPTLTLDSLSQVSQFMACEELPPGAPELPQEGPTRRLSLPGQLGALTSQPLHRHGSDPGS
row,Structure (SMILES),"hERG current change (%, negative = inhibition) at 10uM [%]"
1,CC(=O)Nc1c(C)ccc(S(N)(=O)=O)c1C,3.63
2,O=C(O)c1ccccc1NCN1C(=O)C2CC=C(Cl)CC2C1=O (centres unmarked),-4.67
3,O=C(NCC(c1ccco1)N1CCCC1)c1ccccc1F (centres unmarked),3.76
4,CCC(C)NC(=O)CSc1nnc(-c2ccoc2C)n1CC1CCCO1 (centres unmarked),-0.273
5,CC(=O)c1ccc(OCc2cc(C(=O)N3CC4C[C@@H]5CC3C[C@H](C4)C5)no2)cc1,-23.2
6,O=C(/C=C/c1cccs1)Nc1ccc(N2CCOCC2)c(S(=O)(=O)Nc2ccccc2Cl)c1,10.3
7,COC(=O)c1ccc(Oc2c(C)oc3cc(OCc4cnn(-c5ccccc5)c4)ccc3c2=O)cc1,1.08
8,CC(OC(=O)c1ccc(NC(=O)CC#N)cc1)C(=O)Nc1nc(-c2ccccc2)cs1 (centres unmarked),-3.7
9,CCC(C)c1ccc(OCc2ccc(C(=O)OC)o2)cc1 (centres unmarked),-12.8
10,Cc1nn(-c2cc(N(S(C)(=O)=O)S(C)(=O)=O)c(Cl)cc2Cl)c(=O)n1C,-0.411
11,COc1ccc(CNC(=O)c2ccc(S(=O)(=O)N3CCCC3)cc2)cc1OC,12.2
12,O=[N+]([O-])c1cc(C(F)(F)F)ccc1NN=C1CCCC1,3.42
13,O=C(O)c1ccc(-n2ccnc2)c([N+](=O)[O-])c1,32.1
14,COCCN(C(=S)Nc1cccc(OC)c1)C1CCN(C(C)=O)CC1,9.94
15,COc1ccc(C2NC(c3ccc(OC)cc3OC)C(C)C(=O)C2C)c(OC)c1.O=C(O)C(=O)O (centres unmarked),46.3
16,O=C(Cc1ccccc1)Nc1ccc(NC(=O)c2cccs2)c(Cl)c1,19.3
17,CN(CC(=O)Nc1cccc(F)c1)C(=O)c1cc([N+](=O)[O-])ccc1N1CCCCC1,10.9
18,N=c1c(-c2nc3ccccc3[nH]2)cc(C(=O)c2cccs2)nn1-c1ccc(Cl)cc1,8.51
19,O=C(O)CCCn1cc(NC(=O)COc2cc(F)ccc2[N+](=O)[O-])cn1,16.3
20,CC(C)(C)c1cc(NC(=O)CSc2nnc(NCc3ccccc3)s2)n(-c2ccccc2)n1,-50.1
21,CN(CC(=O)NCc1ccc(Cl)cc1)S(=O)(=O)c1cccc2cccnc12,-32.4

row,Structure (SMILES),"hERG current change (%, negative = inhibition) at 10uM [%]"
1,Cc1cc(C(=O)NCCCN2CCN(c3cc(Cl)ccc3C)CC2)n(-c2ccccc2)n1,-89.2
2,Cc1cc(C)c(NC(=O)CN(C)C(=O)CCC(=O)c2ccc(C)s2)c(C)c1,4.04
3,O=C(OCc1ccc(F)cc1)c1cccnc1Cl,-7.94
4,COc1ccc(NC(=O)CS(=O)(=O)c2ccc(C)cc2)c(OC)c1,0.382
5,Cc1cc(NCc2cccnc2)no1,12.6
6,COC(=O)C1=C(c2cccc(OCc3ccccc3)c2)C[C@@H]2CC[C@H]1N2C(=O)NCCCOC(C)C,-7.93
7,COc1ccc2cc(C#N)c(SCC(=O)Nc3nonc3C)nc2c1,4.53
8,COc1cc(/C=C/C(=O)Nc2cc(S(=O)(=O)N3CCOCC3)ccc2N2CCCC2)cc(OC)c1OC,24
9,O=C(COC(=O)C1CC2C=CC1C2)NCc1ccco1 (centres unmarked),-2.31
10,CCc1cccc(NC(=O)Cn2c(=O)n(CCC(=O)NCC3CCCO3)c(=O)c3cc(OC)c(OC)cc32)c1 (centres unmarked),2.65
11,Cn1nnc2c(NCc3ccco3)nccc21,1.71
12,O=C(/C(=C/c1ccccc1Cl)c1ccccc1)N1CCOCC1,-3.84
13,c1ccc(CCc2cn(C[C@H]3CC[C@@H]([C@@H]4CC[C@H](Cn5cc(CCc6ccccc6)nn5)O4)O3)nn2)cc1,-38.2
14,Cc1cc(C(=O)COC(=O)c2ccc[nH]c2=O)c(C)n1-c1ccccc1,0.679
15,CCOc1ccc(NC(=O)c2ccc3c(=O)n4c(nc3c2)CCCCC4)cc1,19.5
16,COc1nc(-c2ccccc2)cc(-c2ccccc2)n1,-14.7
17,CC(Sc1cccc(C(F)(F)F)c1)C(=O)NC(N)=O (centres unmarked),16
18,O=C(NCc1ccccn1)C(C(=O)c1cccc([N+](=O)[O-])c1)n1cc(Cl)ccc1=O (centres unmarked),26.2
19,COc1ccc(C(=O)Nc2ccccc2C(=O)Nc2ccncc2)cc1,-0.689
20,Cc1ccc(Nc2nnc(SCC(=O)N(C)C3CCS(=O)(=O)C3)s2)cc1 (centres unmarked),-3.48
